This is an account of results in ChEMBL document CHEMBL4888484, “Replenishing the malaria drug discovery pipeline: Screening and hit evaluation of the MMV Hit Generation Library 1 (HGL1) against asexual blood stage Plasmodium falciparum ,using a nano luciferase reporter read-out” (2022).

What is called % Inhibition is the relative decrease from the control value, in per cent.

Out of some 150,000 compounds screened, about 540 (0.36%) showed an effect of 50% or more. This is one part of the list.

The test concerns Plasmodium falciparum. Put plainly: Primary screen in NF54 nanoGlo assay, in single point, at 2uM, 72h; a lower Z score goes with more inhibition. As to conditions: timepoint 72 hour. The format is functional, Erythrocyte.
For `O=C(NCc1cccnc1)C(=O)N1CCCCC1`, the “% Inhibition” value is recorded as -1% and the Z score turned out to be 0.07.

Turning to `CCc1nnc(CN2CCc3ccccc32)o1`, the “% Inhibition” value is listed as -7% and the Z score was found to be 0.8.

Regarding `CCOC1CC(Nc2ccc(C#N)cc2)C12CCCO2` (stereo not drawn), the “% Inhibition” value is given as -3% and the Z score was 0.65.

For `CC(C)N1CCNC(=O)[C@@H]1Cc1nc(C2CC2)nn1-c1ccccn1`, the “% Inhibition” value is -3% and the Z score is 0.5.

For the compound `Cc1n[nH]c(C)c1S(=O)(=O)N1CC(c2ccncc2)C1`, the “% Inhibition” value is reported as -20% and the Z score is reported as 1.93.

Consider `CCn1c(=O)c(C(=O)NC(C)C)nn(-c2cccc(C)c2)c1=O`, for which the “% Inhibition” value is on record as -6% and the Z score is on record as 0.85.

As to `CCc1c(C)nc(C)nc1-c1ccc(-n2cccn2)cc1`, the “% Inhibition” value is listed as -5% and the Z score worked out at 0.65.

Consider `CN1CCN(Cc2noc(C3CCC3)n2)c2ccc(Cl)cc21`, for which the “% Inhibition” value is reported as -7% and the Z score worked out at 1.1.

In the case of `CCc1onc(C)c1NC(=O)NCC(F)(F)c1cccc(F)c1`, the “% Inhibition” value is -2% and the Z score turned out to be 0.34.

In the case of `CCC1(c2nc(Cc3noc(C)n3)no2)CCCC1`, the “% Inhibition” value is given as -2% and the Z score amounted to 0.31.

In the case of `Cc1ccc(Cl)cc1-n1c2c(cc(C#N)c1=O)C(=O)C[C@H](c1ccccc1)C2`, the “% Inhibition” value was determined as 0% and the Z score is -0.05.

For the compound `CCc1nc(NC(=O)c2cccc(CN3CC[C@H](O)C3)c2)nn1C`, the “% Inhibition” value is on record as -3% and the Z score stood at 0.29.

On to `Cc1ccc(OCC(=O)N(C)[C@@H](C)Cc2cnccn2)cc1C`, for which the “% Inhibition” value is -1% and the Z score came to 0.23.

Take `COC(C)(C)c1nsc(NCC23COCCN2CCOC3)n1`: the “% Inhibition” value is on record as -6% and the Z score amounted to 1.15.

As to `O=C(NC1CCC(O)CC1)NC1CCN(Cc2ccccc2)CC1` (stereo not drawn), the “% Inhibition” value is on record as -6% and the Z score turned out to be 0.87.

Regarding `O=C(OCc1nc(-c2ccccc2)cs1)c1ccc2nncn2c1`, the “% Inhibition” value is given as -7% and the Z score is on record as 1.

In the case of `O=S(=O)(c1ccc2c(c1)CCO2)N1CC[C@H](Oc2cnccn2)C1`, the “% Inhibition” value is on record as -11% and the Z score is reported as 1.24.

Turning to `O=C(Cc1ccc(F)cc1Cl)N[C@@H](Cc1ccncc1)C1CC(O)C1` (stereo partly drawn), the “% Inhibition” value was -6% and the Z score worked out at 1.08.

With `Cn1cncc1Cc1noc([C@@]23C[C@@H]2COC32CCC2)n1`, the “% Inhibition” value is listed as -6% and the Z score was found to be 0.97.

Turning to `O=C(NCC1CC1)Nc1cccc(-c2cn[nH]c2)c1`, the “% Inhibition” value is -6% and the Z score amounted to 0.88.

For `Cc1noc(C)c1CC(=O)N1C[C@H]2C[C@H](C1)[C@H]1CCCC(=O)N1C2`, the “% Inhibition” value was -2% and the Z score is on record as 0.4.

Take `O=C(c1n[nH]c2ccccc12)N1CC[C@H](O)CC12CCC2`: the “% Inhibition” value is on record as 1% and the Z score is listed as -0.24.

On to `CC(C)C[C@@H](CNC(=O)c1cccc(F)c1Cl)C(=O)O`, for which the “% Inhibition” value is recorded as -3% and the Z score amounted to 0.23.

`COc1cccc(CN/C(=N\c2ccc(C(=O)O)cc2)N2CCN(c3ncccn3)CC2)c1`: the “% Inhibition” value worked out at 6% and the Z score is -1.12.

In the case of `N#Cc1ccc(N2C[C@H]3CC[C@@H](C2)N(Cc2cscn2)C3=O)nc1`, the “% Inhibition” value is given as -21% and the Z score came to 1.91.

With `Cc1ccc(C(=O)N2CC[C@H]3[C@H](CCC(=O)N3CC(C)C)C2)c(=O)[nH]1`, the “% Inhibition” value was determined as 8% and the Z score was -1.3.

Take `CC(=O)n1cc2cc(Br)cc(C)c2n1`: the “% Inhibition” value is listed as -4% and the Z score amounted to 0.46.

For the compound `COc1ccc(NC(=O)N2CCC(c3cc(O)nc(C)n3)CC2)cc1`, the “% Inhibition” value is -5% and the Z score came to 0.8.

On to `COc1c(C(=O)Nc2cccc(F)c2)oc2ccc(NC(=O)c3cccc(C)c3)cc12`, for which the “% Inhibition” value is -19% and the Z score is 2.23.

For `CN(CCNC(=O)C1CCN(c2nc3cccnc3s2)CC1)C1CCCCC1`, the “% Inhibition” value is reported as -24% and the Z score was 2.14.

As for `O=C(OCc1nc2cc(C(F)(F)F)ccc2o1)c1cccnc1`, the “% Inhibition” value is reported as -14% and the Z score worked out at 1.76.

As to `COc1cc(Cl)c(C)cc1-n1ccnc(NC(=O)c2cccc(F)c2)c1=O`, the “% Inhibition” value was -12% and the Z score is 1.59.

In the case of `Cc1ccccc1S(=O)(=O)Nc1nn(C)c2cc(C)n(C)c(=O)c12`, the “% Inhibition” value is on record as -14% and the Z score is listed as 1.82.

With `CCn1cc(S(=O)(=O)N2CCN(CC(=O)NC3CCCCC3)CC2)c(C)n1`, the “% Inhibition” value is 1% and the Z score was -0.13.

As for `Cn1nc(C(=O)NC2CCCCC2)c2c1-c1ccccc1CC2`, the “% Inhibition” value is 7% and the Z score is on record as -1.13.

On to `COc1ccc(-c2cc(C(F)(F)F)nn2-c2nc(C(=O)O)cs2)cc1`, for which the “% Inhibition” value is -28% and the Z score turned out to be 3.28.

Consider `Cc1cc(CC(=O)N[C@H]2CCN(c3ccc(Cl)c(F)c3)C2)n[nH]1`, for which the “% Inhibition” value worked out at 4% and the Z score was -0.33.

As to `Cc1cc(C)c(C)c(OCc2nc(CN(C(=O)c3ccco3)C(C)C)cs2)c1`, the “% Inhibition” value is on record as -10% and the Z score is recorded as 1.31.

As for `NC(=O)C1CCCC1NC(=O)CCc1cccnc1` (stereo not drawn), the “% Inhibition” value is on record as 0% and the Z score is recorded as 0.03.

Turning to `Cc1cnccc1CN(C)C(=O)Cn1nnnc1CN1C[C@@H](C)O[C@@H](C)C1`, the “% Inhibition” value is given as -8% and the Z score is 0.8.

Take `Cc1cc(C)cc(NC(=O)NC2CCN(c3cnccn3)CC2)c1`: the “% Inhibition” value was -10% and the Z score worked out at 1.25.

With `CCN1CCN(c2ccc(NC(=O)[C@@H](NC(=O)c3ccc(Cl)cc3)C(C)C)cc2C)CC1`, the “% Inhibition” value stood at 5% and the Z score was -0.9.

Consider `C[C@H](NC(=O)c1cc(=O)n(C)cc1Br)c1nc[nH]n1`, for which the “% Inhibition” value is -6% and the Z score worked out at 1.05.

Turning to `OCc1ccnc(-c2cc(O)cc(CC[C@H]3CCCCN3)c2)c1`, the “% Inhibition” value is -3% and the Z score is 0.48.

Turning to `O=C(Nc1cc(C2CC2)n[nH]1)C1CCCCCC1`, the “% Inhibition” value is -24% and the Z score was 2.83.

On to `O=C(COC[C@H]1CCCO1)NCc1nc2ccccc2s1`, for which the “% Inhibition” value was determined as 1% and the Z score is on record as -0.26.

With `CNS(=O)(=O)c1ccc(S(=O)(=O)NC)n1-c1c(Cl)cc(C(F)(F)F)cc1Cl`, the “% Inhibition” value is on record as -10% and the Z score was found to be 1.19.

With `CN1CC2(CCN(Cc3cccs3)CC2)C[C@H]1C(=O)Nc1ccccc1`, the “% Inhibition” value is on record as -7% and the Z score was determined as 0.95.

Consider `Cc1cccc(N2CCN(C(=O)c3nc(Cn4nc(-c5ccc(C)c(C)c5)ccc4=O)no3)C[C@@H]2C)c1`, for which the “% Inhibition” value is -12% and the Z score is 1.73.

As for `CN1CCC2(CCN(Cc3cc(-c4ccccc4)on3)CC2)C1=O`, the “% Inhibition” value is given as -11% and the Z score came out at 1.76.

As for `Cc1nc(C)c(C(=O)N[C@@]2(C)CCS(=O)(=O)C2)s1`, the “% Inhibition” value was -3% and the Z score turned out to be 0.41.

With `CNC(=O)[C@@H]1CN(Cc2c(-c3ccc(Cl)cc3)nc3sccn23)CCO1`, the “% Inhibition” value is listed as -13% and the Z score is 1.3.

For the compound `COCCOC1CCC(C(=O)Nc2cnc(C)s2)CC1` (stereo not drawn), the “% Inhibition” value is reported as 0% and the Z score is given as -0.03.

Regarding `COc1cc(C(=O)N2CCn3cncc3C2)ccn1`, the “% Inhibition” value is reported as -11% and the Z score amounted to 1.43.
